From the supplement of paper PMC7826260
The list shows a part of the results. Cleavage of a single-stranded DNA pool by Rep nickase domains was read by sequencing (3 µM enzyme, 1 h, 37 °C); shown is the middle of each 90-letter strand. Values are log2 of uncut reads against the no-enzyme pool; strong cutting gives strongly negative numbers. There is no active / inactive call. Reads are scaled to the total; uncut strands gain when others are lost, and binding without cutting may add a little.

Tests used:
Assay in all cases: uncleaved DNA left, log2 of reads against the no-enzyme library (log2 ratio); higher = less cleavage (more negative = more Rep cleavage of the k-mer); sequences stand for … in CTCGTCCG…ACCGGAGA
[1] = test system: T1, Rep nickase domain of Muscovy duck circovirus
T1 sequence (protein, residues 1-111, tag omitted): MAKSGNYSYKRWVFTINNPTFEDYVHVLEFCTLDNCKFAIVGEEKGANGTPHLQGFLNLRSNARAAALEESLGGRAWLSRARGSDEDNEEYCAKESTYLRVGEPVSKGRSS
Experimental: (§1)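 A pool of 90-nt single-stranded DNAs with seven random bases just before the constant AC of the nick site (name = the seven bases) was cut by 3 µM recombinant His6-SUMO-tagged Rep nickase domain (300 nM DNA, 50 mM HEPES pH 8.0, 50 mM NaCl, 1 mM MnCl2, 1 h, 37 °C, three replicates). Uncut DNA was amplified and sequenced.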

[2] = test system: T2, Rep nickase domain of banana bunchy top virus
T2 sequence (protein, residues 1-94, tag omitted): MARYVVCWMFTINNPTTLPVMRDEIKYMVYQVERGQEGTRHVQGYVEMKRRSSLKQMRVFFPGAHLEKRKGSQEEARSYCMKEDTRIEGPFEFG
Experimental: as §1

[3] = test system: T3, Rep nickase domain of cabbage leaf curl virus
T3 sequence (protein, residues 1-116, tag omitted): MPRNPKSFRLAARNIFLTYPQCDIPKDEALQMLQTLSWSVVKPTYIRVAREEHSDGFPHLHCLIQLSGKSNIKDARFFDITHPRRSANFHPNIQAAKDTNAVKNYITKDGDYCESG
Experimental: as §1

[4] = test system: T4, Rep nickase domain of chickpea chlorotic dwarf virus
T4 sequence (protein, residues 1-124, tag omitted): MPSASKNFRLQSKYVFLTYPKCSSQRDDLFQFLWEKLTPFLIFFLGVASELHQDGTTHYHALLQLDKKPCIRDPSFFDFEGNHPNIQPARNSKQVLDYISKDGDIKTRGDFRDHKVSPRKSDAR
Experimental: as §1

[5] = test system: T5, Rep nickase domain of faba bean necrotic yellows virus
T5 sequence (protein, residues 1-98, tag omitted): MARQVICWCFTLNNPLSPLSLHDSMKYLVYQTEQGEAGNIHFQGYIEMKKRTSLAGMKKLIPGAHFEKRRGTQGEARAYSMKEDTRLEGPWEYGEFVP
Experimental: as §1

[6] = test system: T6, Rep nickase domain of maize striate mosaic virus
T6 sequence (protein, residues 1-117, tag omitted): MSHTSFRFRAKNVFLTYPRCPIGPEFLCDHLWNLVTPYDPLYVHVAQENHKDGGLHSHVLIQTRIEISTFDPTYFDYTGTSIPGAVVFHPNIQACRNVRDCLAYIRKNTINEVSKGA
Experimental: as §1

[7] = test system: T7, Rep nickase domain of porcine circovirus 2
T7 sequence (protein, residues 2-116, tag omitted): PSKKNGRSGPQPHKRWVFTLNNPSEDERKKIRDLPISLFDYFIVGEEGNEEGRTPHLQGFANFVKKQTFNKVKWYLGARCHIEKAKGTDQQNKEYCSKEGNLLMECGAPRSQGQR
Experimental: as §1

[8] = test system: T8, Rep nickase domain of tomato golden mosaic virus
T8 sequence (protein, residues 1-124, tag omitted): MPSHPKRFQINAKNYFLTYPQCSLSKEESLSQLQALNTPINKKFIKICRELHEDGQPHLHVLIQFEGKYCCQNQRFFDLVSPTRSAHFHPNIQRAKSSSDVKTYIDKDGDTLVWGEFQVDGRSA
Experimental: as §1

[9] = test system: T9, Rep nickase domain of tomato yellow leaf curl virus
T9 sequence (protein, residues 1-136, tag omitted): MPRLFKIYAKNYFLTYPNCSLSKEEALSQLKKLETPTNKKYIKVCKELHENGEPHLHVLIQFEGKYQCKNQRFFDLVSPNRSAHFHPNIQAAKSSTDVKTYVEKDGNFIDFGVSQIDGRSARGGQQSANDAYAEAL
Experimental: as §1

[10] = test system: T10, Rep nickase domain of wheat dwarf virus
T10 sequence (protein, residues 1-137, tag omitted): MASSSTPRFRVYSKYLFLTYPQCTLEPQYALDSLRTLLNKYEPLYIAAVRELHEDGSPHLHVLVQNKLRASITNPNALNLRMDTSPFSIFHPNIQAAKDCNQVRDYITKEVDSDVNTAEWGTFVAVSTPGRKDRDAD
Experimental: as §1

Sequence | uncleaved DNA left (log2) [1] | uncleaved DNA left (log2) [2] | uncleaved DNA left (log2) [3] | uncleaved DNA left (log2) [4] | uncleaved DNA left (log2) [5] | uncleaved DNA left (log2) [6] | uncleaved DNA left (log2) [7] | uncleaved DNA left (log2) [8] | uncleaved DNA left (log2) [9] | uncleaved DNA left (log2) [10]
GGACGGA | 0.035 | 0.0308 | 0.752 | 1.67 | -0.0322 | 1.89 | 0.139 | 0.0191 | 0.0561 | 0.132
TCGTCCC | 0.0539 | -0.0525 | 0.223 | 0.00762 | 0.0637 | 0.0724 | -0.162 | -0.0684 | 0.0787 | -0.00169
AGTACGA | -0.0349 | -0.047 | -0.0258 | -0.165 | -0.0124 | -0.663 | 0.0152 | -0.0465 | 0.0313 | -0.0358
GATACAT | 0.121 | 0.246 | 0.803 | 1.8 | 0.0805 | 2.04 | 0.301 | 0.0722 | 0.118 | 0.273
ATAGTCC | 0.092 | 0.0555 | 0.121 | -0.465 | -0.0675 | -0.436 | -0.108 | 0.0298 | 0.0151 | 0.0188
AGGGTGG | -0.0759 | -0.0867 | -0.188 | 0.254 | -0.114 | -0.252 | 0.0185 | -0.0331 | -0.148 | -0.0514
GGATTGT | -0.0731 | 0.0896 | 0.321 | 0.962 | -0.00282 | 0.9 | -0.0486 | 0.081 | 0.063 | 0.0486
CCGCGTT | -0.073 | -0.196 | -0.43 | -1.28 | -0.159 | -0.611 | -0.0989 | -0.115 | -0.0159 | -0.205
AGGGAAG | 0.143 | 0.0723 | -0.16 | 0.0672 | 0.117 | -0.687 | 0.12 | 0.104 | -0.0205 | 0.0638
ACGCATC | 0.107 | 0.0372 | -0.182 | -0.0854 | 0.0638 | -0.555 | 0.123 | 0.141 | -0.151 | -0.0326
AGAAGGT | -0.0236 | 0.0865 | 0.271 | 0.923 | -0.0319 | 1.28 | 0.0377 | 0.0353 | -0.107 | 0.0233
TTCGGCA | -0.0462 | 0.000826 | 0.00244 | -0.412 | 0.0444 | -0.786 | -0.168 | -0.0509 | 0.0411 | 0.0227
AAGCGTC | 0.147 | 0.0547 | -0.0882 | -0.196 | 0.0161 | -0.44 | 0.129 | -0.0435 | 0.0447 | -0.0155
CGCCGCA | 0.0259 | -0.0117 | -0.0237 | 0.0228 | -0.0669 | -0.0519 | 0.0193 | 0.0362 | 0.052 | 0.0768
GGCCTAG | 0.157 | 0.191 | 0.234 | 0.546 | 0.142 | 0.525 | 0.174 | 0.142 | 0.121 | 0.198
AGAATTT | -0.0547 | -0.0889 | 0.0854 | -2.19 | -0.0227 | -0.363 | -1.72 | -0.0592 | -0.112 | -0.162
CTGTAGA | 0.0199 | -0.0626 | -0.167 | -0.378 | 0.0473 | -0.997 | 0.17 | -0.013 | -0.0411 | -0.0772
TGCAGCT | 0.0142 | -0.0667 | -0.346 | -1.09 | -0.0103 | -1.04 | -0.0407 | -0.041 | -0.0242 | -0.128
GTCCACG | -0.0228 | 0.0385 | 0.0807 | 0.359 | -0.112 | 0.233 | 0.086 | 0.0339 | -0.0284 | -0.0665
CATTAGG | 0.155 | 0.13 | 0.00705 | 0.552 | -0.0383 | -0.258 | 0.171 | 0.104 | -0.00972 | 0.106
TGCCTCG | 0.064 | -0.125 | -0.612 | -0.467 | -0.00422 | -1.1 | -0.0239 | -0.219 | -0.0619 | -0.179
CAAATCG | 0.0632 | 0.121 | -0.744 | 0.326 | 0.038 | -0.749 | 0.244 | 0.0175 | 0.0269 | 0.0541
GGAGATA | 0.113 | 0.106 | 0.835 | 1.86 | 0.0682 | 2.14 | 0.247 | 0.092 | 0.113 | 0.202
GCCGGTT | 0.205 | 0.159 | 0.375 | 0.31 | 0.158 | 0.64 | 0.243 | 0.223 | 0.249 | 0.0517
CCGAGAA | 0.205 | 0.0596 | 0.714 | 1.16 | 0.121 | 1.13 | -0.00208 | 0.108 | 0.0907 | 0.0514
GCGTGAA | 0.19 | 0.142 | 0.205 | 0.527 | 0.173 | 0.417 | 0.0534 | 0.111 | 0.225 | -0.0365
AGTGAAA | 0.0354 | -0.0369 | 0.102 | 0.466 | -0.042 | 0.798 | -0.0395 | 0.081 | -0.157 | 0.14
ATATTAA | 0.0439 | 0.0886 | -0.0359 | -0.339 | 0.0993 | -0.754 | 0.114 | 0.142 | 0.0316 | 0.0905
AATGTAA | 0.0972 | 0.002 | -0.214 | -0.374 | 0.0479 | -0.437 | -0.0415 | 0.00694 | -0.0486 | -0.0125
